Experimental data published in PubChem BioAssay AID596 (National Center for Advancing Translational Sciences (NCATS), 2007).
About 1,400 (2%) of roughly 71,000 compounds were called active. Inconclusive results, whose numbers are uncertain, are shown with a selection of clear calls. Calls follow the shape of the dose curve; as a rule, active = well fitted curve in the direction sought with a large enough effect; inconclusive = small, poorly fitted or top-dose-only effect; inactive = no such curve, though single readings can be large or run the other way. Where the call is inconclusive, the potency comes from a doubtful curve fit.
% is scaled to controls: 0 for no effect and ±100 for the full control effect; potency is read from the fitted curve at half-maximal effect.
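Also: actives lower thioflavin S fluorescence by blocking filaments or displacing dye.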

What follows are compounds tested against Microtubule-associated protein tau (Homo sapiens) (UniProt P10636) (assay: qHTS Assay for Tau Filament Binding). Conditions: recombinant tau filaments, thioflavin S fluorescence, 15 h, filaments grown with octadecylsulfate alongside compound; series mostly up to 57.1 µM; activity change, negative = inhibition: at the top concentration.
UniProt P10636, sequence (P10636 whole entry, looked up): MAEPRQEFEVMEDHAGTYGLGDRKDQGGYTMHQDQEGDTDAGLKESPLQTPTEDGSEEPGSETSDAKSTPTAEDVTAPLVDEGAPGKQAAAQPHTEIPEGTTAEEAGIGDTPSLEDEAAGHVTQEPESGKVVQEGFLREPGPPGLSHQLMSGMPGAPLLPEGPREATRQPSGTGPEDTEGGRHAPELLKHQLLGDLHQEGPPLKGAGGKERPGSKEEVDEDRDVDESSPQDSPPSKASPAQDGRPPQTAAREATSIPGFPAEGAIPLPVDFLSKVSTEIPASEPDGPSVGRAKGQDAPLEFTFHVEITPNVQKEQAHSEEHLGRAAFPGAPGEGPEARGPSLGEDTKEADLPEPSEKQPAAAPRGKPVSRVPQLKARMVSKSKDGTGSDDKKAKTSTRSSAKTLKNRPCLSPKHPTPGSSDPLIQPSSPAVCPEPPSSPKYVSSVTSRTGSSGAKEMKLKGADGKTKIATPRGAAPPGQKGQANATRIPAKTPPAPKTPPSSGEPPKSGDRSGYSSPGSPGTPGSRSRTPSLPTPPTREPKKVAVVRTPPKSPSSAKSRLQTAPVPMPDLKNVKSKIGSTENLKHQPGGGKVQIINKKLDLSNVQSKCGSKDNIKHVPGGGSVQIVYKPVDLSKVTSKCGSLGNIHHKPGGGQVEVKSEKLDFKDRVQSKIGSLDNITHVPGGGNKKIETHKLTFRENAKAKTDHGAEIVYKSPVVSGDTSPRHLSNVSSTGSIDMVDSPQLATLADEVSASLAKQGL
How it was run: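 His-tagged recombinant human tau (exons 2, 3, 10; 1 uM final) fibrillized with 30 uM sodium octadecylsulfate, 15 h at 37 C, in pH 7.4 HEPES buffer with 10 uM thioflavine S and 5 mM DTT. Reduced ThS fluorescence (450/510 nm) marks activity.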
`CCC(c1nnnn1Cc1ccc2c(c1)OCO2)N1CCN(c2ccccc2)CC1` (centres undefined) was tested, and the “activity change, negative = inhibition” value was inactive: 3.9%. `COc1ccc2oc(C(=O)c3ccccc3)c(NC(=O)CN3CCN(C)CC3)c2c1` was tested, and the Potency was active: 3.98 µM. In the case of `Cn1c(/C(C#N)=C(\O)COc2ccc3ccccc3c2)nc2ccccc21`, the “activity change, negative = inhibition” value is reported as inactive: 2.7%. `CCOC(=O)N1CCC(n2c(SCC(=O)NCCC3=CCCCC3)nc3ccccc3c2=O)CC1` was tested, and the “activity change, negative = inhibition” value was inactive: -8%. In the case of `Cc1ccc(NC(=O)CSc2nnc(-c3ccccc3Br)o2)cc1C`, the “activity change, negative = inhibition” value is reported as inactive: 72.1%. With `Cc1cccc(C)c1Nc1nc2ccccc2o1` the Potency was inconclusive: 7.94 µM [decreasing]. For `O=C(c1ccc([N+](=O)[O-])cc1)[C@@H](Br)[C@@H](Br)c1ccnc2ccccc12`, the Potency was inconclusive: 3.16 µM [decreasing]. For `CCOC(=O)C1CCN(C(=O)CN(Cc2ccc(Cl)cc2)S(C)(=O)=O)CC1`, the “activity change, negative = inhibition” value was inactive: -3.7%. `O=Nc1c2nc3ccccc3n(O)c-2c2ccccc12` was tested, and the Potency was inconclusive: 31.6 µM [decreasing]. `NC(N)=NC(=O)Cc1c(Cl)cccc1Cl` was tested, and the Potency was inconclusive: 39.8 µM [decreasing]. `CCCCCCC/C=C\CCCCCCCCC(=O)O` was tested, and the Potency was inconclusive: 39.8 µM [decreasing]. In the case of `Oc1ccc(N=Cc2ccc(-c3cccs3)s2)cc1`, the Potency is reported as inconclusive: 3.98 µM [decreasing]. For `CNC1=C(Cl)C(=O)c2ccncc2C1=O`, the Potency was inconclusive: 31.6 µM [decreasing]. With `Cc1ccc(Nc2ncc3c(n2)CC(c2ccco2)CC3=O)c(C)c1` (centres undefined) the Potency was inconclusive: 31.6 µM [decreasing]. With `CCCCNC(=O)C(c1ccc(-c2ccccc2)cc1)N(CCN1CCOCC1)C(=O)CCCCCN1C(=O)NC(c2ccc([N+](=O)[O-])cc2)C(C(=O)OCc2ccccc2)=C1C` (centres undefined) the Potency was inconclusive: 2.51 µM [decreasing]. With `COc1ccc(OC)c(N/C=C2/CCCCC2=O)c1` the Potency was inconclusive: 39.8 µM [decreasing]. `COc1ccc(C=Nc2c(O)ccc3ccccc23)cc1OC` was tested, and the Potency was active: 3.98 µM. With `O=C(c1ccccc1)C1C(=O)c2ccccc2C1=O` the Potency was inconclusive: 10 µM [decreasing]. With `Oc1ccc(-c2nc(-c3ccc(O)c(O)c3)cs2)cc1` the Potency was inconclusive: 25.1 µM [decreasing]. With `COc1ccccc1N1CCN(C(=O)CSc2nc(-c3ccco3)cc(C(F)(F)F)n2)CC1` the Potency was inconclusive: 12.6 µM [decreasing]. For `CCOC(=O)c1cc2nc(Nc3ccc(OC)cc3)sc2s1`, the Potency was inconclusive: 2.51 µM [decreasing]. `CCOC(=O)Cn1c(=O)sc2ccccc21` was tested, and the “activity change, negative = inhibition” value was inactive: 9.7%. In the case of `CNc1ccccc1C(C)(C)c1cc(-c2ccco2)n[nH]1`, the Potency is reported as active: 31.6 µM. With `CCN1C(=O)c2cccc3c(S(=O)(=O)Nc4ccc(OC)cc4OC)ccc1c23` the Potency was inconclusive: 20 µM [decreasing]. In the case of `O=S(=O)(Nc1ccc2c(c1)OCCO2)c1cccc2cccnc12`, the “activity change, negative = inhibition” value is reported as inactive: -3.9%. With `COCCNc1nc(-c2ccccc2Cl)nc2ccccc12` the “activity change, negative = inhibition” value was inactive: -10%. `Clc1nc2ccccc2nc1Cl` was tested, and the “activity change, negative = inhibition” value was inactive: -0.5%. `Cc1ccc2c(c1C)NC(C(=O)O)C1CC=CC21` (centres undefined) was tested, and the Potency was active: 3.16 µM. For `CNC(=O)Oc1ccc2c(c1)[C@@]1(C)CCN(C)[C@@H]1N2C`, the Potency was inconclusive: 39.8 µM [decreasing]. In the case of `Nc1ccc2c(c1)ncn2CCCn1cnc2cc(N)ccc21`, the Potency is reported as inconclusive: 39.8 µM [decreasing]. In the case of `CC[C@@]12CCCN3CCc4c(n(c5ccccc45)C(=O)C1)[C@H]32`, the Potency is reported as inconclusive: 39.8 µM [decreasing]. With `NC(N)=NCCC[C@H](N)C(=O)O` the Potency was inconclusive: 39.8 µM [decreasing]. In the case of `COCCn1c(C2CCCCC2)nc2sc3ccccc3c(=O)c2c1=O`, the Potency is reported as inconclusive: 1 µM [decreasing]. With `CCSc1sccc1C1C(C#N)=C(N)N(c2cccnc2)C2=C1C(=O)CCC2` (centres undefined) the Potency was inconclusive: 3.98 µM [decreasing]. `N[C@@H](CO)C(=O)O` was tested, and the Potency was inconclusive: 39.8 µM [decreasing]. `COCCN1CCn2c(nc3cc(NC(=O)c4ccc(OC)cc4)ccc32)C1` was tested, and the Potency was active: 25.1 µM. With `N[C@H](C(=O)O)c1nn[nH]n1` the Potency was inconclusive: 39.8 µM [decreasing]. In the case of `COCCCn1cnc2c(c1=O)c1nc3ccccc3nc1n2-c1ccccc1`, the Potency is reported as inconclusive: 15.8 µM [decreasing]. With `O=C1CCCC2=C1C(c1ccco1)Nc1ccc(C(=O)c3ccccc3)cc1N2` (centres undefined) the Potency was active: 6.31 µM. `COc1cc(OC)c(Cl)cc1N` was tested, and the Potency was inconclusive: 39.8 µM [decreasing]. With `O=C(c1ccc(=O)oc1)N1CCCc2ccccc21` the Potency was inconclusive: 39.8 µM [decreasing]. `Clc1ccc(CN2CCCN(Cc3ccc(Cl)cc3)C2c2cc3ccccc3c3ccccc23)cc1` was tested, and the activity change, negative = inhibition was inactive: -23.9% [at 11.4 µM]. With `CC1=NN(c2ccccc2)C(=O)C1` the Potency was inconclusive: 39.8 µM [decreasing]. For `NCCCNCCCCN(CCCN)/[N+]([O-])=N/O`, the Potency was inconclusive: 39.8 µM [decreasing]. `CCN(CC)c1ccc(NC(=O)Nc2ccc(C(C)=O)cc2)cc1` was tested, and the Potency was inconclusive: 0.0126 µM [decreasing]. In the case of `Cc1cc(N)ccc1-n1c(C)ccc1C`, the Potency is reported as active: 25.1 µM. For `NCCCNCCCCNCCCN`, the Potency was inconclusive: 39.8 µM [decreasing]. For `COc1ccc(CCN2C(=O)c3cccnc3C2=O)cc1OC`, the “activity change, negative = inhibition” value was inactive: -3.6%. In the case of `CCn1c(CCNC(=O)c2cccs2)nnc1SCC(=O)c1ccc(OC)cc1`, the “activity change, negative = inhibition” value is reported as inactive: 8.8%. For `O=C(Nc1ccc(N2CCN(C(=O)c3ccc(Cl)cc3)CC2)cc1)c1ccc(Br)o1`, the Potency was active: 25.1 µM. With `COc1ccc(N2CCN(CC(=O)Nc3nc4c(s3)CC(C)CC4)CC2)cc1` (centres undefined) the Potency was inconclusive: 31.6 µM [decreasing]. With `CCOC(=O)c1cc2c(=O)n3ccccc3nc2n(Cc2ccccc2)c1=N` the Potency was active: 1.58 µM. With `COc1cccc(Oc2ccc(N)cc2)c1` the Potency was inconclusive: 10 µM [decreasing]. With `CN(C)c1ncnc2ccc(-c3cccc(NS(C)(=O)=O)c3)cc12` the “activity change, negative = inhibition” value was inactive: -4.8%. For `COc1ccc(-c2nc3cnc(Nc4ccccc4)nc3n(C[C@H]3CCCO3)c2=O)cc1`, the “activity change, negative = inhibition” value was inactive: 102%. With `CN(C)CC(=O)N1c2ccccc2CCc2ccc(NC(=O)c3ccc(N)cc3)cc21` the Potency was active: 15.8 µM. In the case of `O=C(CN1CCN(c2ncc(C(F)(F)F)cc2Cl)CC1)NC(=O)NCc1ccccc1`, the “activity change, negative = inhibition” value is reported as inactive: 7%. In the case of `COc1ccccc1N1CCN(C(=O)CSc2ncccc2-c2nc3ccccc3[nH]2)CC1`, the Potency is reported as inconclusive: 31.6 µM [decreasing]. In the case of `COc1ccc(C2(C(=O)O)CCCC2)cc1`, the “activity change, negative = inhibition” value is reported as inactive: -10.4%. `O=C(Nc1sc2c(c1C(=O)O)CCC2)c1cccs1` was tested, and the “activity change, negative = inhibition” value was inactive: 5.9%. With `Cc1c(C(=O)COC(C)(C)C)[nH]c2ccccc12` the Potency was inconclusive: 25.1 µM [decreasing]. For `CC1CCc2c(sc(N)c2C(N)=O)C1` (centres undefined), the Potency was inconclusive: 39.8 µM [decreasing]. For `Cn1c(=O)c(-c2ccccc2)nc2cnc(Oc3ccccc3)nc21`, the Potency was inconclusive: 39.8 µM [decreasing]. `O=C(Nc1ccc2c(c1)OCCO2)c1ccccc1F` was tested, and the Potency was inconclusive: 7.94 µM [decreasing]. In the case of `CCCCCn1c(-c2ccco2)nc2nc3ccccc3nc21`, the Potency is reported as active: 12.6 µM. `Cc1cc(Cl)c2c(c1)[C@]1(C(=O)N2)[C@@H]2C(=O)N(Cc3ccccc3)C(=O)[C@@H]2[C@@H]2CCCN21` was tested, and the Potency was inconclusive: 31.6 µM [decreasing]. In the case of `CCCOc1ccc(C2c3c(oc4ccccc4c3=O)C(=O)N2CCN(CC)CC)cc1OC` (centres undefined), the Potency is reported as inconclusive: 25.1 µM [decreasing]. For `Cc1nc(N=Nc2cc(S(=O)(=O)O)c3cc([N+](=O)[O-])cc(S(=O)(=O)O)c3c2)c(COP(=O)(O)O)c(C=O)c1O`, the Potency was inconclusive: 39.8 µM [decreasing]. `COc1cccc(Nc2ncc3nc(C)c(=O)n(CCC#N)c3n2)c1` was tested, and the Potency was active: 25.1 µM. For `N#Cc1ccc(-c2ccco2)nc1SCc1ccccc1`, the Potency was inconclusive: 12.6 µM [decreasing]. For `CCOC(=O)c1cc2c(=O)n3cccc(C)c3nc2n(CCc2ccc(OC)c(OC)c2)c1=N`, the Potency was inconclusive: 3.16 µM [decreasing]. With `COC(=O)N1CCC2(CCN(C(=O)Nc3cccc(C#N)c3)CC2)CC1` the “activity change, negative = inhibition” value was inactive: -4.8%. `Cc1cc(C)n(-c2nc3ccccc3nc2Nc2ccc3[nH]c(=O)[nH]c3c2)n1` was tested, and the Potency was active: 1.26 µM. For `CC(C)NC(=O)N1CC[C@@]2(CCCN(C(=O)c3cc(C(F)(F)F)cc(C(F)(F)F)c3)C2)C1`, the “activity change, negative = inhibition” value was inactive: 3.9%. In the case of `Cc1cccn2c(=O)c(C=Nc3c(C)n(C)n(-c4ccccc4)c3=O)c(N3CCCC3)nc12`, the Potency is reported as inconclusive: 15.8 µM [decreasing]. For `Nc1nnc(-c2cccc(Cl)c2Cl)c(N)n1`, the Potency was inconclusive: 39.8 µM [decreasing]. In the case of `O=c1c(CCc2ccccc2)nc2cncnc2n1Cc1ccc(F)cc1`, the Potency is reported as inconclusive: 31.6 µM [decreasing]. `CC(C)(C)NS(=O)(=O)c1cccc2nsnc12` was tested, and the “activity change, negative = inhibition” value was inactive: -1.2%. For `Cc1ccc(-n2c(N)c(-c3nc4ccccc4n3C)sc2=S)cc1`, the “activity change, negative = inhibition” value was inactive: 136%. `CCOC(=O)CSc1ccc2nnc(-c3cccs3)n2n1` was tested, and the “activity change, negative = inhibition” value was inactive: -21.1%. In the case of `CC[C@@H]1Cc2cc(O)ccc2C2=C1c1ccc(O)cc1C[C@H]2CC`, the Potency is reported as active: 25.1 µM. `COCCn1c(=O)c(-c2cccc(C#N)c2)nc2cnc(Oc3ccc(OC)cc3)nc21` was tested, and the Potency was inconclusive: 39.8 µM [decreasing]. In the case of `C=C[C@@](C)(O)CC[C@H]1[C@]2(C)CCCC(C)(C)[C@H]2CC[C@]1(C)O`, the Potency is reported as inconclusive: 39.8 µM [decreasing]. `CCC(=O)Nc1ccc(C(=O)Cn2nc(C(=O)O)c3ccccc3c2=O)cc1` was tested, and the “activity change, negative = inhibition” value was inactive: -17.9%.
